Laboratory results from publication PMC4242493.
The other results are listed elsewhere or left out. The list includes weakly bound sequences.

target: MaxL homodimer (UniProt P61244); assay: universal protein-binding microarray (PBM); conditions: PBS-based mixture, 10 nM His-tagged protein dimer, 2% milk, 200 ng/uL BSA, 50 ng/uL salmon testes DNA, 0.02% TX-100; detection with Alexa 488 anti-His …; high values mean tight binding; most listed sequences are background and not binding sites; double strand, one strand shown
Chain of UniProt P61244 (P61244 whole entry): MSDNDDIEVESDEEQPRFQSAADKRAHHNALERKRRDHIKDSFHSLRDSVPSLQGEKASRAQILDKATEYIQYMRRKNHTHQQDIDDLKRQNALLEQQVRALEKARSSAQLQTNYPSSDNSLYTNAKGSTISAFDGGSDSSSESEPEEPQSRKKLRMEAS

Row | Sequence | binding signal (normalized occupancy)
1 | TCGTTACA | 0.0782
2 | AACGCAAA | 0.0698
3 | GCCAATAA | 0.0762
4 | GAGGAATC | 0.0767
5 | GGATAATA | 0.082
6 | CGGCCTTA | 0.0665
7 | CGGGACGA | 0.0655
8 | GCACTAGC | 0.0686
9 | AAAGCTAG | 0.0701
10 | CAAGAGAC | 0.0711
11 | ATCATGGC | 0.0863
12 | CCCCCTAG | 0.0726
13 | TATCCCCA | 0.081
14 | GCTCAGTA | 0.0736
15 | TAAACCTA | 0.0748
16 | GATCTCTA | 0.0742
17 | CTTAGGCC | 0.0686
18 | CACATAGA | 0.0825
19 | AGTGGTCC | 0.0686
20 | AAGGCTGA | 0.067
21 | CGTACCAA | 0.0777
22 | ACTAAAGT | 0.069

Row | Sequence | binding signal (normalized occupancy)
23 | AGTGTCTC | 0.0724
24 | CGCCAGAA | 0.0697
25 | ACCGATCG | 0.0717
26 | GCACGCAC | 0.0902
27 | CAGGATTA | 0.0732
28 | AATTTGGA | 0.0778
29 | ACTGAGCT | 0.069
30 | CCGAACGA | 0.0694
31 | GAGCCGCC | 0.0686
32 | TAATGAGA | 0.0781
33 | ACGCGTTG | 0.0902
34 | GGATGCGA | 0.0783
35 | ACGCATTC | 0.0764
36 | ACAATTGG | 0.0749
37 | CTACCAGA | 0.0766
38 | CACCACCG | 0.074
39 | GAGATTAA | 0.0724
40 | CGAAACAG | 0.0732
41 | GCGACTCC | 0.0707
42 | GTCCATGA | 0.0836
43 | ATGGGGAC | 0.082
44 | ATTTGCTC | 0.0746

Row | Sequence | binding signal (normalized occupancy)
45 | ATAGCCAG | 0.0717
46 | ACCCACTA | 0.085
47 | ACGTCGGC | 0.0779
48 | CTAGGATC | 0.0757
49 | GCGCGACC | 0.0739
50 | ACAGGAGG | 0.0737
51 | CGAACCGA | 0.0672
52 | CATTGAAC | 0.0813
53 | GTTGTGGA | 0.079
54 | ACGACTAC | 0.076
55 | AGTCGAGC | 0.0692
56 | AATAGAAA | 0.0789
57 | AACACCGA | 0.0761
58 | AACACGAC | 0.0822
59 | CAGAAGTC | 0.0766
60 | CGACAGCA | 0.0797
61 | CTGTGGTC | 0.0713
62 | AGCTGACG | 0.0719
63 | GCGAGTTA | 0.0723
64 | CCAAGAAA | 0.0713
65 | ATACCTGA | 0.0791
66 | AAACCGAG | 0.0668

Row | Sequence | binding signal (normalized occupancy)
67 | CTAGACTA | 0.0726
68 | AGTGAACT | 0.0691
69 | CACCTGCG | 0.0879
70 | ACGCTAAG | 0.0823
71 | GGCCTTTA | 0.0759
72 | GCGAGCCC | 0.0746
73 | GCGTGCGA | 0.0911
74 | AAGCTTGA | 0.0669
75 | AGAACCGC | 0.0681
76 | CAACCACG | 0.0943
77 | CCTATGTA | 0.083
78 | ACCAACGC | 0.078
79 | GACCCTCC | 0.0735
80 | CACGTACC | 0.0843
81 | GCTGTTTA | 0.0716
82 | CAGCACCC | 0.0752
83 | CCCTTCTA | 0.078
84 | TACCGTCA | 0.0756
85 | GATTGTGC | 0.079
86 | CCGTTCAA | 0.0737
